About 40 (0.04%) of roughly 110,000 compounds were called active. Inconclusive means that the source gave no clear call. Such entries were picked first, then a sample of the others. The call rests on the fitted dose curve; in most records, active means well fitted curve in the direction sought with a large enough effect in the signal ratio (not every such curve was filed as active); inconclusive means small, poorly fitted or top-dose-only effect, or a change in a side signal; inactive means flat fitted curve, though single readings scatter; the % refers to the signal ratio. A potency beside an inconclusive call is a rough fit, not a confirmed value.
Experiment: IkB Signaling;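 on IkBa stabilization activation: 0% = basal untreated cells and 100% = reference inhibitor full response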
Conditions: ABC-DLBCL IkBa-CBG/CBR dual luciferase ratio (green luciferase fused to IkBa over red control in OCI-Ly3 lymphoma cells), 4 h; IkBa stabilization activation: at 57.1 µM (top of the series), scaled: untreated 0%, proteasome inhibitor 100% unless noted
Outline: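 Luminescence ratio of IκBα-fused green versus native red beetle luciferase in OCI-Ly3 cells, 4 h post-doxycycline with compound; red signal alone, scaled from basal (0%) to zero light (-100%), flagged nonspecific or cytotoxic effects.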
Potency means the concentration at half of the fitted maximal effect.

Question: With `Cc1cccc2cc(CN(Cc3ccco3)C(c3nnnn3CCc3ccccc3)C(C)C)c(=O)[nH]c12` (stereo not given) as the compound, how does the IkBa stabilization activation read?
Answer: inconclusive: 2.84% [signal inhibitor]

Question: For `CCCN1C[C@@H](CSC)C[C@H]2c3cccc4[nH]cc(c34)C[C@@H]21`, which IkBa stabilization activation is on record?
Answer: inactive

Question: Which IkBa stabilization activation does the source give for `C/C(N)=C(/C#N)C(=O)CSc1nc2cc(Cl)ccc2s1` here?
Answer: inconclusive: 2.79% [signal inhibitor]

Question: For `Cc1ccc(S(=O)(=O)NCCc2nnc3ccc(SCc4ccccc4F)nn23)cc1`, which IkBa stabilization activation is on record?
Answer: inconclusive: 2.04% [signal inhibitor]

Question: For `O=C1OC(O)C(C(Cl)Cl)=C1Cl` (stereo not given), which Potency is on record?
Answer: inconclusive: 2510 nM [rising, full curve]

Question: For `Cc1ccc2nc(C3CCN(C(=O)NCc4ccccc4)CC3)[nH]c2c1`, which IkBa stabilization activation is on record?
Answer: inactive

Question: Which IkBa stabilization activation does the source give for `CN1CCN(CCCNN)CC1` here?
Answer: inactive: 0.367% [at 11.4 µM, scaled: untreated 0%, proteasome inhibitor 100%]

Question: With `Clc1ccc(/C=C\c2nc(Cl)c(-c3ccc(Cl)cc3)c(Cl)n2)cc1` as the compound, how does the IkBa stabilization activation read?
Answer: inactive: 2.17% [at 11.4 µM, scaled: untreated 0%, proteasome inhibitor 100%]

Question: Which IkBa stabilization activation does the source give for `COc1ccc(C)cc1NC(=O)c1cc2ccccc2o1` here?
Answer: inactive

Question: With `Nc1nnc(SCc2ccc(F)cc2Cl)s1` as the compound, how does the IkBa stabilization activation read?
Answer: inconclusive: 15.1% [signal inhibitor]

Question: With `CCN(CC(=O)Nc1ccc2c(c1)CCC2)Cc1nc2ccccc2c(=O)[nH]1` as the compound, how does the IkBa stabilization activation read?
Answer: inconclusive: 0.851% [signal inhibitor]

Question: With `O=C(COc1ccccc1F)Nc1nnc(SCc2cc(=O)n3ccccc3n2)s1` as the compound, how does the IkBa stabilization activation read?
Answer: inconclusive: 2.05% [signal inhibitor]

Question: For `O=C(c1cccc(F)c1)N1CCC2(CCCN(c3cccc(-c4ccccc4)c3)C2)CC1`, which IkBa stabilization activation is on record?
Answer: inactive: 1.26% [at 11.4 µM, scaled: untreated 0%, proteasome inhibitor 100%]

Question: With `COc1nc(C)ccc1-c1noc(-c2ccco2)n1` as the compound, how does the IkBa stabilization activation read?
Answer: inactive

Question: Which IkBa stabilization activation does the source give for `CCOC(=O)c1c(NC(=O)Nc2ccc(F)cc2)sc(C(=O)N(C)C)c1C` here?
Answer: inactive

Question: For `CN1[C@@H]2CC(OC(=O)[C@@H](CO)c3ccccc3)C[C@H]1[C@H]1O[C@H]12` (stereo not given in full), which IkBa stabilization activation is on record?
Answer: inactive

Question: With `Cc1csc(NC(=O)CSc2nnc(Cc3cccn3C)n2CCc2ccccc2)n1` as the compound, how does the IkBa stabilization activation read?
Answer: inconclusive: -2.75% [signal inhibitor]

Question: For `Cc1ccc(C(O)c2nc3ccccc3n2C(C)C)cc1` (stereo not given), which IkBa stabilization activation is on record?
Answer: inactive

Question: For `COc1ccc(-c2cccc(NS(=O)(=O)c3cc(C(F)(F)F)ccc3Cl)c2)nn1`, which IkBa stabilization activation is on record?
Answer: inconclusive: 2.32% [signal inhibitor]

Question: Which IkBa stabilization activation does the source give for `COc1ccc(-n2cc(-c3ccccc3)c3c(N4CCCC(C)C4)ncnc32)cc1` (stereo not given) here?
Answer: inconclusive: -0.476% [signal inhibitor]

— PubChem BioAssay AID445 (National Center for Advancing Translational Sciences (NCATS), 2006)
